This note sets out measurements from patent US8197863B2, “Hop acids as a replacement for antibiotics in animal feed” (John I. Haas, Inc., priority 2002, dated 2012).

Assay [1] has as its system rumenal fluid containing a bacterial mixture commonly found in cattle. Briefly: End products of in vitro fermentation (pH, lactate, VFA). It counts as cell-based. Conditions: alfalfa; hop acids 2 ppm, monensin 6 ppm; vs control. An excerpt:
Proprionate is largely responsible for animal growth. […] Lactate is an intermediate in the formation of propionate. One concern with increasing lactate levels is a drop in pH. Lactate is a fairly strong acid and low pH's in the rumen reduces food and energy uptake. […] The beta acids are able to control harmful bacteria, thus allowing the formation of more lactate, an intermediate for the production of propionate. In Example 4, barley was allowed to ferment in an artificial gut to which 1.25 ppm, 2.5 ppm or 3.75 ppm of beta acids were added and the volatile fatty acid end products of the in vitro fermentation of barley were measured. Beta acids are effective at killing and inhibiting the growth of gram-positive bacteria and protozoa but not gram-negative bacteria. Since acetate is formed by the gram-negative bacteria, B. ruminicola, it is not expected that beta acids would control the formation of acetate. However, a slight reduction in acetate levels is expected if propionate levels increase. […] As the amount of beta acid increases in the synthetic gut, the amount of proprionate increases. […] In Example 5, alfalfa was allowed to ferment in an artificial gut to which 1.25 ppm, 2.5 ppm or 3.75 ppm of beta acids were added and the volatile fatty acid end products of the in vitro fermentation of alfalfa were measured. […]

For assay [2] the test system is unchanged. Briefly: In vitro gas production, artificial rumen fermentation. The conditions noted are these: monensin 6 ppm.

Marks after values point to notes of the source that are not given here.

Consider `CC[C@@]1([C@@H]2O[C@@H]([C@H]3O[C@@](O)(CO)[C@H](C)C[C@@H]3C)C[C@@H]2C)CC[C@H]([C@]2(C)CC[C@]3(C[C@H](O)[C@@H](C)[C@@H]([C@@H](C)[C@@H](OC)[C@H](C)C(=O)O)O3)O2)O1` [monensin], for which the “propionate” value in assay [1] is given as “increased significantly”. For the same molecule, the “Gas Production Rate” value in assay [2] (alfalfa) was 9.2^a %/hr; in assay [2] (barley) it was 9.1^b %/hr; in assay [2] (corn) it was 8.9^b %/hr. For the same molecule, the “Gas Production per g fermented” value in assay [2] (alfalfa) was 263^ab mL/g fermented; in assay [2] (barley) it was 212^bc mL/g fermented; in assay [2] (corn), 233^ab mL/g fermented.
